# This is one part of the list.
# B1: AT1G15820(NC) (Arabidopsis thaliana) (protein)
# chain: MAMAVSGAVLSGLGSSFLTGGKRGATALASGVGDAIAPFSFGSLLGTQLLLMGWVESKRWVDFFNPDSQSVEWATPWSKTAENFANYTGDQGYPGGRFFDPLGLAGKNRDGVYEPDFEKLERLKLAEIKHSRLAMVAMLIFYFEAGQGKTPLGALGL
# Assays:
# Assay in all cases: glycan array binding signal (z-score within array); higher = stronger binding
# Conditions in all cases: glycan notation: IUPAC condensed, linker removed
# [1] = biological target: Fuc(a1-3)GlcNAc
# Procedure, shortened: (§1)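 Columns mapping to the same glycan were averaged after glycan names were converted to IUPAC-condensed notation. The data come from 3228 arrays in the Consortium for Functional Glycomics database, limited to those with an available protein sequence. Binding is reported as a within-array Z-score averaged across arrays of one protein sequence and across linkers.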
# [2] = biological target: Fuc(a1-3)[Gal(b1-4)]Glc6S
# Procedure, shortened: as §1
# [3] = biological target: Fuc(a1-3)[Gal(b1-4)]GlcNAc
# Procedure, shortened: as §1
# [4] = biological target: Fuc(a1-3)[Gal(b1-4)]GlcNAc(b1-2)Man
# Procedure, shortened: as §1
# [5] = biological target: Fuc(a1-3)[Gal(b1-4)]GlcNAc(b1-2)Man(a1-3)[Fuc(a1-3)[Gal(b1-4)]GlcNAc(b1-2)Man(a1-6)]Man(b1-4)GlcNAc(b1-4)GlcNAc
# Procedure, shortened: as §1
# [6] = biological target: Fuc(a1-3)[Gal(b1-4)]GlcNAc(b1-2)Man(a1-3)[Fuc(a1-3)[Gal(b1-4)]GlcNAc(b1-2)Man(a1-6)]Man(b1-4)GlcNAc(b1-4)[Fuc(a1-6)]GlcNAc
# Procedure, shortened: as §1
# [7] = biological target: Fuc(a1-3)[Gal(b1-4)]GlcNAc(b1-3)Gal(b1-3)[Fuc(a1-4)]GlcNAc
# Procedure, shortened: as §1
# [8] = biological target: Fuc(a1-3)[Gal(b1-4)]GlcNAc(b1-3)Gal(b1-4)[Fuc(a1-3)]GlcNAc
# Procedure, shortened: as §1
# [9] = biological target: Fuc(a1-3)[Gal(b1-4)]GlcNAc(b1-3)Gal(b1-4)[Fuc(a1-3)]GlcNAc(b1-3)Gal(b1-4)[Fuc(a1-3)]GlcNAc
# Procedure, shortened: as §1
# [10] = biological target: Fuc(a1-3)[Gal(b1-4)]GlcNAc(b1-3)GalNAc
# Procedure, shortened: as §1
# [11] = biological target: Fuc(a1-3)[Gal(b1-4)]GlcNAc(b1-6)GalNAc
# Procedure, shortened: as §1
# [12] = biological target: Fuc(a1-3)[Gal(b1-4)]GlcNAc(b1-6)[Gal(b1-3)GlcNAc(b1-3)]Gal(b1-4)Glc
# Procedure, shortened: as §1
# [13] = biological target: Fuc(a1-3)[Gal(b1-4)]GlcNAc6S
# Procedure, shortened: as §1
# [14] = biological target: Fuc(a1-3)[Gal3S(b1-4)]Glc
# Procedure, shortened: as §1
# [15] = biological target: Fuc(a1-3)[Gal3S(b1-4)]GlcNAc
# Procedure, shortened: as §1
# [16] = biological target: Fuc(a1-3)[Gal3S(b1-4)]GlcNAc6S
# Procedure, shortened: as §1
# [17] = biological target: Fuc(a1-3)[GalNAc(b1-4)]GlcNAc
# Procedure, shortened: as §1
# [18] = biological target: Fuc(a1-3)[GalNAc(b1-4)]GlcNAc6S
# Procedure, shortened: as §1
# [19] = biological target: Fuc(a1-4)GlcNAc
# Procedure, shortened: as §1
# [20] = biological target: Fuc(b1-3)GlcNAc
# Procedure, shortened: as §1
# [21] = biological target: Gal(a1-2)Gal
# Procedure, shortened: as §1
# [22] = biological target: Gal(a1-3)Gal
# Procedure, shortened: as §1
# [23] = biological target: Gal(a1-3)Gal(b1-3)GlcNAc
# Procedure, shortened: as §1
# [24] = biological target: Gal(a1-3)Gal(b1-3)GlcNAc(b1-2)Man
# Procedure, shortened: as §1
# [25] = biological target: Gal(a1-3)Gal(b1-3)GlcNAc(b1-2)Man(a1-3)[Gal(a1-3)Gal(b1-3)GlcNAc(b1-2)Man(a1-6)]Man(b1-4)GlcNAc(b1-4)GlcNAc
# Procedure, shortened: as §1
# [26] = biological target: Gal(a1-3)Gal(b1-3)GlcNAc(b1-3)GalNAc
# Procedure, shortened: as §1
# [27] = biological target: Gal(a1-3)Gal(b1-3)GlcNAc(b1-6)GalNAc
# Procedure, shortened: as §1
# [28] = biological target: Gal(a1-3)Gal(b1-3)[Fuc(a1-4)]GlcNAc(b1-2)Man(a1-3)[Gal(a1-3)Gal(b1-3)[Fuc(a1-4)]GlcNAc(b1-2)Man(a1-6)]Man(b1-4)GlcNAc(b1-4)GlcNAc
# Procedure, shortened: as §1
# [29] = biological target: Gal(a1-3)Gal(b1-4)Glc
# Procedure, shortened: as §1
# [30] = biological target: Gal(a1-3)Gal(b1-4)GlcNAc
# Procedure, shortened: as §1
# [31] = biological target: Gal(a1-3)Gal(b1-4)GlcNAc(b1-2)Man
# Procedure, shortened: as §1
# [32] = biological target: Gal(a1-3)Gal(b1-4)GlcNAc(b1-2)Man(a1-3)[Gal(a1-3)Gal(b1-4)GlcNAc(b1-2)Man(a1-6)]Man(b1-4)GlcNAc(b1-4)GlcNAc
# Procedure, shortened: as §1
# [33] = biological target: Gal(a1-3)Gal(b1-4)GlcNAc(b1-3)GalNAc
# Procedure, shortened: as §1
# [34] = biological target: Gal(a1-3)Gal(b1-4)GlcNAc(b1-6)GalNAc
# Procedure, shortened: as §1
# [35] = biological target: Gal(a1-3)Gal(b1-4)[Fuc(a1-3)]GlcNAc
# Procedure, shortened: as §1
# [36] = biological target: Gal(a1-3)Gal(b1-4)[Fuc(a1-3)]GlcNAc(b1-2)Man(a1-3)[Gal(a1-3)Gal(b1-4)[Fuc(a1-3)]GlcNAc(b1-2)Man(a1-6)]Man(b1-4)GlcNAc(b1-4)GlcNAc
# Procedure, shortened: as §1
# [37] = biological target: Gal(a1-3)GalNAc
# Procedure, shortened: as §1
# [38] = biological target: Gal(a1-3)[Gal(a1-4)]Gal(b1-4)GlcNAc
# Procedure, shortened: as §1
# [39] = biological target: Gal(a1-4)Gal(b1-3)GlcNAc(b1-2)Man(a1-3)[Gal(a1-4)Gal(b1-3)GlcNAc(b1-2)Man(a1-6)]Man(b1-4)GlcNAc(b1-4)GlcNAc
# Procedure, shortened: as §1
# [40] = biological target: Gal(a1-4)Gal(b1-4)Glc
# Procedure, shortened: as §1
# [41] = biological target: Gal(a1-4)Gal(b1-4)GlcNAc
# Procedure, shortened: as §1
# [42] = biological target: Gal(a1-4)Gal(b1-4)GlcNAc(b1-2)Man(a1-3)[Gal(a1-4)Gal(b1-4)GlcNAc(b1-2)Man(a1-6)]Man(b1-4)GlcNAc(b1-4)GlcNAc
# Procedure, shortened: as §1
# [43] = biological target: Gal(a1-4)Gal(b1-4)GlcNAc(b1-3)Gal(b1-4)Glc
# Procedure, shortened: as §1
# [44] = biological target: Gal(a1-4)GlcNAc
# Procedure, shortened: as §1
# [45] = biological target: Gal(a1-6)Glc
# Procedure, shortened: as §1
binder,measurement,setting,value
B1,glycan array binding signal (z-score),[1],-0.367
same,glycan array binding signal (z-score),[2],-0.042
same,glycan array binding signal (z-score),[3],0.468
same,glycan array binding signal (z-score),[4],-0.394
same,glycan array binding signal (z-score),[5],-0.533
same,glycan array binding signal (z-score),[6],-0.49
same,glycan array binding signal (z-score),[7],-0.453
same,glycan array binding signal (z-score),[8],-0.088
same,glycan array binding signal (z-score),[9],-0.171
same,glycan array binding signal (z-score),[10],-0.057
same,glycan array binding signal (z-score),[11],-0.347
same,glycan array binding signal (z-score),[12],0.038
same,glycan array binding signal (z-score),[13],-0.425
same,glycan array binding signal (z-score),[14],-0.315
same,glycan array binding signal (z-score),[15],-0.272
same,glycan array binding signal (z-score),[16],-0.391
same,glycan array binding signal (z-score),[17],0.06
same,glycan array binding signal (z-score),[18],-0.624
same,glycan array binding signal (z-score),[19],1.22
same,glycan array binding signal (z-score),[20],-0.028
same,glycan array binding signal (z-score),[21],-0.124
same,glycan array binding signal (z-score),[22],0.252
same,glycan array binding signal (z-score),[23],-0.251
same,glycan array binding signal (z-score),[24],-0.29
same,glycan array binding signal (z-score),[25],0.219
same,glycan array binding signal (z-score),[26],0.707
same,glycan array binding signal (z-score),[27],-0.235
same,glycan array binding signal (z-score),[28],0.353
same,glycan array binding signal (z-score),[29],-0.316
same,glycan array binding signal (z-score),[30],-0.211
same,glycan array binding signal (z-score),[31],-0.445
same,glycan array binding signal (z-score),[32],-0.047
same,glycan array binding signal (z-score),[33],0.2
same,glycan array binding signal (z-score),[34],-0.463
same,glycan array binding signal (z-score),[35],-0.188
same,glycan array binding signal (z-score),[36],0.706
same,glycan array binding signal (z-score),[37],1.58
same,glycan array binding signal (z-score),[38],4.55
same,glycan array binding signal (z-score),[39],-0.238
same,glycan array binding signal (z-score),[40],1.99
same,glycan array binding signal (z-score),[41],0.597
same,glycan array binding signal (z-score),[42],2.97
same,glycan array binding signal (z-score),[43],-0.468
same,glycan array binding signal (z-score),[44],-0.425
same,glycan array binding signal (z-score),[45],-0.547
